{
  "source": "PubChem BioAssay (NCATS)",
  "key": {"[1]": {"target": "Rap guanine nucleotide exchange factor 3 (Homo sapiens) (UniProt O95398)", "sequence (O95398 whole entry, looked up)": "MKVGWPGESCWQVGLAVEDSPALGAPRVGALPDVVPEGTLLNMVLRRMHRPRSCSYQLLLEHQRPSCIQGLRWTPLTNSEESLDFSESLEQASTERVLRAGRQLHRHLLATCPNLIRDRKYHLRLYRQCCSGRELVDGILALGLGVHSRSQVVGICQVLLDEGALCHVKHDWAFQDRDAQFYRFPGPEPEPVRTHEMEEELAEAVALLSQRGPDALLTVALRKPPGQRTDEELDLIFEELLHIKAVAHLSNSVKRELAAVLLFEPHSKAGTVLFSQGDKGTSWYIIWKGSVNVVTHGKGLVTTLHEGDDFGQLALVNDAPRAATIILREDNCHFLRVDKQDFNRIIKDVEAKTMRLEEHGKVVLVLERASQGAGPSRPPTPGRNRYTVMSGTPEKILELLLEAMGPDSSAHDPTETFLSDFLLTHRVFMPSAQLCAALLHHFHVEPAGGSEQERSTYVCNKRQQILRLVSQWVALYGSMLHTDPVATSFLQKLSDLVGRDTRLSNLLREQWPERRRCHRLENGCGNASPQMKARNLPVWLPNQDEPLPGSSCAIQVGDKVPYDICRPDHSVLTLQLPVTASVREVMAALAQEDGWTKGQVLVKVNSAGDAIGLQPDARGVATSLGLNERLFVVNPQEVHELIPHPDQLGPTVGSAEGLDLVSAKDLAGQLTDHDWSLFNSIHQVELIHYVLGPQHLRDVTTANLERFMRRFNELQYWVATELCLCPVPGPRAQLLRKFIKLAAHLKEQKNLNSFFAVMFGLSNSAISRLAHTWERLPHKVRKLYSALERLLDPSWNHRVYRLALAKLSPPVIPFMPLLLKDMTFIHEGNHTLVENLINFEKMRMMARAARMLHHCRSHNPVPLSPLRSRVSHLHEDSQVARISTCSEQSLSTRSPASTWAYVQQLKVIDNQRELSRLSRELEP", "assay": "Confirmatory qHTS for antagonist of cAMP-regulated guanine nucleotide exchange factor 3 (EPAC1) (AID 1645880); further: nearly all actives have a fitted effect of over 55% in size", "how_it_was_run": "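Nucleotide exchange uses 100 nM EPAC1, 250 nM RAP1B-BODIPY-GDP and 50 uM GDP, with compounds in a concentration-titration series. After 5 min at room temperature, fluorescence (480 nm ex/540 nm em) is read every 5 min for 30 min. Data are normalized to control ATA and DMSO.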"}, "[2]": {"target": "Rap guanine nucleotide exchange factor 4 (Homo sapiens) (UniProt Q8WZA2)", "sequence (Q8WZA2 whole entry, looked up)": "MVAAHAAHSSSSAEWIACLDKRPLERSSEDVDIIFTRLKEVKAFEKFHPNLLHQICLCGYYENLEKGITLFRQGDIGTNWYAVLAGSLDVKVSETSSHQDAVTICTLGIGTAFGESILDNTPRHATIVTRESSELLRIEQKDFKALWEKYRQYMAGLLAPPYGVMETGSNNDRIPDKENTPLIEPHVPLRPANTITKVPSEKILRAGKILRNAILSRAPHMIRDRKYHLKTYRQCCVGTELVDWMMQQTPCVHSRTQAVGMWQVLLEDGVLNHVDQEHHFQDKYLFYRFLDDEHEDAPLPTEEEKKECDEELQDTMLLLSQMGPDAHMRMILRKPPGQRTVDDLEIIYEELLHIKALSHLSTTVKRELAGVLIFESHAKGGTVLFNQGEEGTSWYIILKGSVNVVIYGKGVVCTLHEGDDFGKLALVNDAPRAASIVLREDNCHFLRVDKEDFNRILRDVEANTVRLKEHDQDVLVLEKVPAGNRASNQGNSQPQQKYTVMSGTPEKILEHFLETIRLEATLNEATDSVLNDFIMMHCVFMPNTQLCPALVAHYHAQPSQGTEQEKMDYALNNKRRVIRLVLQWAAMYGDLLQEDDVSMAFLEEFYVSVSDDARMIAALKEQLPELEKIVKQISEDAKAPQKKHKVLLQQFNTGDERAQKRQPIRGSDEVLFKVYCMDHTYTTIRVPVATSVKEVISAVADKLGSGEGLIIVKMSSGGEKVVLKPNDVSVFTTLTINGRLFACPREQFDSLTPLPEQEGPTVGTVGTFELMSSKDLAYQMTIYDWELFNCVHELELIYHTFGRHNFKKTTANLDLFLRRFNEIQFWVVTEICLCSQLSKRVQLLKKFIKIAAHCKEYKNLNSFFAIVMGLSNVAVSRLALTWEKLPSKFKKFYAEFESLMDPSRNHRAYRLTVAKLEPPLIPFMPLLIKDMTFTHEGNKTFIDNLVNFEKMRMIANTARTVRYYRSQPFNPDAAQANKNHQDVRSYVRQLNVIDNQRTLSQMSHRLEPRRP", "assay": "Confirmatory qHTS for agonist of cAMP-regulated guanine nucleotide exchange factor 4 (EPAC2) (AID 1645884);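 further: nucleotide exchange releases bodipy-GDP from Rap1 and this lowers its fluorescence; nearly all actives have a fitted effect of over 65% in size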; on activation: on the % scale 0 is the no-effect control and ±100 the full control effect"}, "[3]": {"target": "Rap guanine nucleotide exchange factor 4 (Homo sapiens) (UniProt Q8WZA2)", "assay": "Confirmatory qHTS for antagonist of cAMP-regulated guanine nucleotide exchange factor 4 (EPAC2) (AID 1645885); further: nearly all actives have a fitted effect of over 25% in size; on activity change, negative = inhibition: on the % scale 0 is the no-effect control and ±100 the full control effect", "settings": "activity change, negative = inhibition: at 114 µM (top of the series) unless noted"}, "[4]": {"target": "Rap guanine nucleotide exchange factor 3 (Homo sapiens) (UniProt O95398)", "assay": "Counterscreen qHTS for agonist of cAMP-regulated guanine nucleotide exchange factor 3 (EPAC1) (AID 1645889); further: nearly all actives have a fitted effect of over 40% in size; on activation: % of control where 0% means no effect", "settings": "EPAC1 Rap1B-BODIPY-GDP exchange, fluorescence; activation: at 154 µM (top of the series) unless noted", "how_it_was_run": "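Measured: fluorescence of BODIPY-GDP bound to Rap1B, which falls as exchange proceeds. Conditions include 50 uM competing GDP, 5 and 30 min reads, and a later cAMP challenge for antagonist detection.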"}, "[5]": {"target": "DNA polymerase kappa (Homo sapiens) (UniProt Q9UBT6)", "sequence (Q9UBT6 whole entry, looked up)": "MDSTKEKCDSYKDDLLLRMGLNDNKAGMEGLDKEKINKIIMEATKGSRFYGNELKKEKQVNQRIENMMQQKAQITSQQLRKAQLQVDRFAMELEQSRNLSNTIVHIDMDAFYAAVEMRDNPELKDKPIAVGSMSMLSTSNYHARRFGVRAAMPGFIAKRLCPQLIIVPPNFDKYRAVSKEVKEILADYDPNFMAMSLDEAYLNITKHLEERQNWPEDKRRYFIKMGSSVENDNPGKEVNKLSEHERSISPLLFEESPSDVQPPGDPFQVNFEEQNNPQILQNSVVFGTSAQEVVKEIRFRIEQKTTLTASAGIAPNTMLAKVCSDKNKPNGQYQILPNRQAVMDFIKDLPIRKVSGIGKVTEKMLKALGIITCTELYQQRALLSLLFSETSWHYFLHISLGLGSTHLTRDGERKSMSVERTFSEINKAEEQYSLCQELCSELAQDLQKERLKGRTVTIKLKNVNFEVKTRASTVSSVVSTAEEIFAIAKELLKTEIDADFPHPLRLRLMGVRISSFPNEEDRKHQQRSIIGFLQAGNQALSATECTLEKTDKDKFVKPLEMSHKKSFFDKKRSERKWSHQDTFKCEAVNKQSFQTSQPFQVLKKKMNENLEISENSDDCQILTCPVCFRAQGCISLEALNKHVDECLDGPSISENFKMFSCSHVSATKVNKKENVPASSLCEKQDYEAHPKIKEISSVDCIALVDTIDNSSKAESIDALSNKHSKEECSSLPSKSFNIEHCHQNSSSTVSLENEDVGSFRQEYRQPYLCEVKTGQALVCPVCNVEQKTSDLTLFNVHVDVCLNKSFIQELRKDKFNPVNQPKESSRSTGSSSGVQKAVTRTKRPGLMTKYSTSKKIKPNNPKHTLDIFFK", "assay": "qHTS for Inhibitors of Polymerase Kappa: Confirmatory Assay for Cherry-picked Compounds (AID 720501)", "settings": "purified Pol-kappa, fluorescent strand-displacement substrate", "how_it_was_run": "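Human Pol-kappa, dispensed at 10 nM, was preincubated with compounds for 15 min at room temperature. Reactions were started with primer/template substrate (50 nM final) carrying a TAMRA reporter strand and BHQ-2-quenched template, and fluorescence (ex 525/em 598 nm) was read at 0 and 10 min.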"}, "[6]": {"target": "DNA polymerase eta (Homo sapiens) (UniProt Q9Y253)", "sequence (Q9Y253 whole entry, looked up)": "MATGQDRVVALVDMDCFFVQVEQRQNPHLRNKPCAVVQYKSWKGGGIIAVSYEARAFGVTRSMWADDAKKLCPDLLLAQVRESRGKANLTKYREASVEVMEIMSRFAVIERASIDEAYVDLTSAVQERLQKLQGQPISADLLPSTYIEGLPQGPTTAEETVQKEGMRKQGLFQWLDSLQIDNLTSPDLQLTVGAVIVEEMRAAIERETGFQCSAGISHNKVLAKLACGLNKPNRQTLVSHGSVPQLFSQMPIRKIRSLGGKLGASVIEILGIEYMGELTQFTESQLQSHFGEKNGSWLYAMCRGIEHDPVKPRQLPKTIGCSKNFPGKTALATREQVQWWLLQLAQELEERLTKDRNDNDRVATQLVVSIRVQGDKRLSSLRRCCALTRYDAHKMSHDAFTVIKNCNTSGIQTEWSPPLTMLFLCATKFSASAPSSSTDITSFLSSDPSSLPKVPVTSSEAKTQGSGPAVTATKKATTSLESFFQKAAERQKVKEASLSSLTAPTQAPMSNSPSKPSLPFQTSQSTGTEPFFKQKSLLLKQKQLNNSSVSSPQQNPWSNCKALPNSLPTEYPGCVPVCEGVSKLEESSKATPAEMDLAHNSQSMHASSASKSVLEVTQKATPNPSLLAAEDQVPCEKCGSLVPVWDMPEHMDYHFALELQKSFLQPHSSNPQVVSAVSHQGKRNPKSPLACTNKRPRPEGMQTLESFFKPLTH", "assay": "qHTS for Inhibitors of Polymerase Eta: Confirmatory Assay for Cherry-picked Compounds (AID 720502)", "settings": "Pol eta primer extension, TAMRA/BHQ fluorescence, 10 min", "how_it_was_run": "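Human Pol eta at 10 nM was preincubated with compound for 15 min at room temperature. Reaction was started with TAMRA/BHQ-2-labelled primer-template substrate (50 nM final), with fluorescence read at 0 and 10 min (ex 525, em 598 nm).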"}, "[7]": {"target": "RecQ-like DNA helicase BLM (Homo sapiens) (UniProt P54132)", "sequence (P54132 whole entry, looked up)": "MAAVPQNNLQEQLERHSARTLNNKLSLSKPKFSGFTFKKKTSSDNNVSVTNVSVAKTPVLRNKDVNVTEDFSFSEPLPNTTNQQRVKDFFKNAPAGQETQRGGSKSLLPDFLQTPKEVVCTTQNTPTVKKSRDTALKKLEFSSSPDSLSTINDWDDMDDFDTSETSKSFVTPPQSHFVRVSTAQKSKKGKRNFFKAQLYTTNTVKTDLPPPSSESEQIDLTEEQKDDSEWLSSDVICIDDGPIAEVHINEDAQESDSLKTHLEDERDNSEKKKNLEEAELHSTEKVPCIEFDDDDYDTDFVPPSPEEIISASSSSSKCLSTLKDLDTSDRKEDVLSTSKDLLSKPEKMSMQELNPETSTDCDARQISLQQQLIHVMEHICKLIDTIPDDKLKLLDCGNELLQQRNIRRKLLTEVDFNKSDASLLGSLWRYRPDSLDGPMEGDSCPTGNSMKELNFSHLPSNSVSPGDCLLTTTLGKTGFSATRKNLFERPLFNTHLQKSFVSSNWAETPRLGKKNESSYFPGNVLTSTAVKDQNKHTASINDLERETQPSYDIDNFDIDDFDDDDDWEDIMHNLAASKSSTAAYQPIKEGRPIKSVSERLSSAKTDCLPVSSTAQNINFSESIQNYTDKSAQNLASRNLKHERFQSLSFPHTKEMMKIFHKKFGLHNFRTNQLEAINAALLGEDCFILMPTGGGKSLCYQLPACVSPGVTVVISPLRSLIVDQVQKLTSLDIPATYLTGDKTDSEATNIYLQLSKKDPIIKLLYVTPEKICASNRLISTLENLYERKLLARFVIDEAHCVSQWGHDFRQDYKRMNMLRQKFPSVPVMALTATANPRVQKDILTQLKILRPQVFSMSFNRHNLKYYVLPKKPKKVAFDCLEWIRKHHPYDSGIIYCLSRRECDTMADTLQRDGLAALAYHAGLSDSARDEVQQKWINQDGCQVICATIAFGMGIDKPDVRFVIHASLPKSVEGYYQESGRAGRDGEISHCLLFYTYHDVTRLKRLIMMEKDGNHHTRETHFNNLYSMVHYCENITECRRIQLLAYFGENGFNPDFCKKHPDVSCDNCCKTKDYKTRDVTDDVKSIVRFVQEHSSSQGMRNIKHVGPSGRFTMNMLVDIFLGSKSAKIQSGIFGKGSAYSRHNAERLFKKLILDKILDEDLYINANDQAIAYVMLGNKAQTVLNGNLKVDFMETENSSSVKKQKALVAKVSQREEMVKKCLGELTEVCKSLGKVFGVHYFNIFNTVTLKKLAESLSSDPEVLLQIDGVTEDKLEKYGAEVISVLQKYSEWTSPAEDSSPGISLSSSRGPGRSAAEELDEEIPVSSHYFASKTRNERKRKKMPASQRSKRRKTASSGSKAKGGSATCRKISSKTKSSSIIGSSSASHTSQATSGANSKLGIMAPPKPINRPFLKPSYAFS", "assay": "qHTS for Inhibitors of WRN Helicase: BLM Helicase Counterscreen for WRN Inhibitors (AID 720503); further: nearly all actives have a fitted effect of over 60% in size", "settings": "Recombinant BLM helicase DNA unwinding, red fluorescence", "how_it_was_run": "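BLM (1 nM) was preincubated with compounds for 15 min at room temperature in Tris-HCl pH 8.0, 50 mM NaCl, 2 mM MgCl2 buffer. Unwinding started with 100 nM DNA and 2 mM ATP (final); red fluorescence was read twice, 15 min apart.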"}, "[8]": {"target": "Rap guanine nucleotide exchange factor 3 (Homo sapiens) (UniProt O95398)", "assay": "Confirmatory qHTS for agonist of cAMP-regulated guanine nucleotide exchange factor 3 (EPAC1) (AID 1645881); further: nearly all actives have a fitted effect of over 75% in size", "settings": "EPAC1 Rap1B BODIPY-GDP exchange fluorescence; activation: at 154 µM (top of the series), 100% = cAMP control response"}, "[9]": {"target": "DNA repair nuclease/redox regulator APEX1 (Homo sapiens) (UniProt P27695)", "assay": "Confirmation qHTS Assay for Inhibitors of the Human Apurinic/apyrimidinic Endonuclease 1 (APE1) (AID 2572); further: nearly all actives have a fitted effect of over 30% in size", "how_it_was_run": "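No-enzyme wells served as negative control, enzyme-only wells as full activity. APE1 with compound for 15 min RT; 50 nM final fluorophore/quencher abasic duplex started the reaction; read 3 minus read 1 at 525/598 nm.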"}, "[10]": {"target": "Bifunctional 3'-5' exonuclease/ATP-dependent helicase WRN (Homo sapiens) (UniProt Q14191)", "assay": "qHTS for Inhibitors of WRN Helicase: Confirmatory Assay for Cherry-picked Compounds. (AID 720497); further: nearly all actives have a fitted effect of over 65% in size", "settings": "WRN helicase DNA unwinding, fluorescence kinetic", "how_it_was_run": "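Kinetic fluorescence unwinding readout (525/598 nm) of a forked duplex oligonucleotide substrate, 100 nM, with 2 mM ATP and 20 nM WRN. Compounds were added 15 min before substrate at room temperature. Activity was scaled between uninhibited enzyme and buffer-only controls.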"}},
  "note": "Inconclusive results, whose numbers are uncertain, are shown with a selection of clear calls. For some assays here: A potency beside an inconclusive call is a rough fit, not a confirmed value. Activity calls are given as the source filed them. The call rests on the fitted dose curve; in most records, active means well fitted curve in the direction sought with a large enough effect; inconclusive means small, poorly fitted or top-dose-only effect, or another doubt; inactive means no such curve, though single readings can be large; an effect the other way counts as inactive or inconclusive. Potency means the concentration at half of the fitted maximal effect; tags describe the fitted curve by direction and shape.",
  "data": [
    {"smiles": "COc1ccc(C2C=C(C)Oc3c2c(=O)oc2ccccc32)cc1OC", "note": "(stereo not drawn)", "values": [
      {"measurement": "Potency", "setting": "[1]", "result": "inconclusive: 75.7 µM [inhibitor, partial curve]"},
      {"measurement": "Potency", "setting": "[2]", "result": "inconclusive: 63.1 µM [activator, partial curve, poor fit]"}
    ]},
    {"smiles": "COC(=O)N1C(c2ccccc2)C1c1ccccc1", "note": "(stereo not drawn)", "values": [
      {"measurement": "Potency", "setting": "[1]", "result": "inactive"},
      {"measurement": "Potency", "setting": "[3]", "result": "inconclusive: 2.39 µM [inhibitor, partial curve]"},
      {"measurement": "Potency", "setting": "[4]", "result": "inconclusive: 0.0126 µM [activator, full curve, poor fit]"}
    ]},
    {"smiles": "Cc1cc(/C=C2\\C(=O)NC(=O)N(c3ccc(Cl)cc3)C2=O)c(C)n1-c1sc2c(c1C#N)CCCC2", "values": [
      {"measurement": "Potency", "setting": "[5]", "result": "active: 75.2 µM"},
      {"measurement": "Potency", "setting": "[6]", "result": "active: 30.1 µM"},
      {"measurement": "Potency", "setting": "[1]", "result": "active: 11.2 µM"},
      {"measurement": "activation", "setting": "[2]", "result": "inactive: 3.87% [at 17.1 µM, percent relative to cAMP agonist control]"},
      {"measurement": "Potency", "setting": "[4]", "result": "inconclusive: 2.51 µM [activator, full curve, poor fit]"}
    ]},
    {"smiles": "COc1ccc(CN2C(=O)NC(=O)/C(=C/c3ccc([N+](=O)[O-])s3)C2=O)cc1", "values": [
      {"measurement": "Potency", "setting": "[1]", "result": "active: 9.53 µM"},
      {"measurement": "Potency", "setting": "[3]", "result": "inconclusive: 16.9 µM [inhibitor, partial curve, poor fit]"},
      {"measurement": "Potency", "setting": "[4]", "result": "inconclusive: 39.8 µM [activator, single point]"}
    ]},
    {"smiles": "CC(C)N1C(=O)/C(=C/C=C/c2ccco2)C(=O)N(Cc2ccco2)C1=O", "values": [
      {"measurement": "Potency", "setting": "[6]", "result": "active: 9.53 µM"},
      {"measurement": "Potency", "setting": "[7]", "result": "active: 8.57 µM"},
      {"measurement": "Potency", "setting": "[1]", "result": "inactive"},
      {"measurement": "Potency", "setting": "[8]", "result": "inconclusive: 126 µM [activator, partial curve, poor fit]"},
      {"measurement": "Potency", "setting": "[4]", "result": "inconclusive: 12.6 µM [activator, partial curve]"}
    ]},
    {"smiles": "CCN(CC)c1ccc(N=Cc2c(O)n(CCC3=CCCCC3)c(=O)[nH]c2=O)cc1", "values": [
      {"measurement": "Potency", "setting": "[1]", "result": "active: 75.7 µM"},
      {"measurement": "Potency", "setting": "[3]", "result": "inactive"}
    ]},
    {"smiles": "CCCNC(=O)N1[C@H]2CC[C@@H]1C(C(=O)OC)=C(c1ccc(F)cc1OCc1ccccc1)C2", "values": [
      {"measurement": "Potency", "setting": "[1]", "result": "inactive"},
      {"measurement": "Potency", "setting": "[3]", "result": "inactive"},
      {"measurement": "Potency", "setting": "[4]", "result": "inconclusive: 79.4 µM [activator, partial curve, poor fit]"}
    ]},
    {"smiles": "COc1ccc(-n2nnnc2C(c2cccs2)N2CCC(n3c(=O)[nH]c4ccccc43)CC2)cc1", "note": "(stereo not drawn)", "values": [
      {"measurement": "Potency", "setting": "[1]", "result": "inconclusive: 95.3 µM [inhibitor, partial curve, poor fit]"},
      {"measurement": "Potency", "setting": "[2]", "result": "inconclusive: 50.1 µM [activator, partial curve, poor fit]"},
      {"measurement": "Potency", "setting": "[4]", "result": "inconclusive: 7.94 µM [activator, partial curve, poor fit]"}
    ]},
    {"smiles": "CN1CCN2c3ccc(N)cc3CC3(C(=O)NC(=O)NC3=O)C2C1", "note": "(stereo not drawn)", "values": [
      {"measurement": "Potency", "setting": "[9]", "result": "inconclusive: 0.0063 µM [inhibitor, full curve, poor fit]"},
      {"measurement": "Potency", "setting": "[1]", "result": "inconclusive: 84.9 µM [inhibitor, partial curve]"},
      {"measurement": "Potency", "setting": "[2]", "result": "inconclusive: 112 µM [activator, single point]"}
    ]},
    {"smiles": "COCCNC(=O)Cn1cc(/C=C2\\C(=O)NC(=O)N(c3ccccc3F)C2=O)c2ccccc21", "values": [
      {"measurement": "Potency", "setting": "[1]", "result": "inconclusive: 47.8 µM [inhibitor, partial curve]"},
      {"measurement": "Potency", "setting": "[3]", "result": "inactive"},
      {"measurement": "activation", "setting": "[4]", "result": "inconclusive: 39.4% [activator]"}
    ]},
    {"smiles": "Cn1cccc1/C=C1\\C(=O)NC(=O)N(Cc2ccccc2)C1=O", "values": [
      {"measurement": "Potency", "setting": "[10]", "result": "inconclusive: 24.1 µM [inhibitor, partial curve]"},
      {"measurement": "Potency", "setting": "[7]", "result": "inconclusive: 24.1 µM [inhibitor, partial curve]"},
      {"measurement": "Potency", "setting": "[1]", "result": "inconclusive: 75.7 µM [inhibitor, partial curve]"},
      {"measurement": "Potency", "setting": "[2]", "result": "inactive"},
      {"measurement": "activation", "setting": "[4]", "result": "inconclusive: 33.5% [activator]"}
    ]},
    {"smiles": "COCCNC(=O)c1c(N)n(CCC(C)C)c2nc3ccccc3nc12", "values": [
      {"measurement": "Potency", "setting": "[1]", "result": "inconclusive: 89.1 µM [inhibitor, partial curve, poor fit]"},
      {"measurement": "activity change, negative = inhibition", "setting": "[3]", "result": "inactive: -8.1% [at 12.7 µM]"}
    ]},
    {"smiles": "O=C1NCN(c2ccccc2)C12CCN(C(c1cc3ccccc3o1)c1nnnn1C1CCCCC1)CC2", "note": "(stereo not drawn)", "values": [
      {"measurement": "Potency", "setting": "[1]", "result": "inconclusive: 47.8 µM [inhibitor, partial curve]"},
      {"measurement": "Potency", "setting": "[3]", "result": "inconclusive: 30.1 µM [inhibitor, single point]"}
    ]},
    {"smiles": "CCn1nc(/C=C/c2ccccc2)nc2c(=O)n(C)c(=O)nc1-2", "values": [
      {"measurement": "Potency", "setting": "[1]", "result": "inconclusive: 0.953 µM [inhibitor, full curve]"},
      {"measurement": "Potency", "setting": "[3]", "result": "inconclusive: 0.169 µM [inhibitor, full curve, poor fit]"},
      {"measurement": "Potency", "setting": "[4]", "result": "inactive"}
    ]},
    {"smiles": "Cc1oc(-c2ccccc2)nc1CN1C(=O)CN=C(c2ccccc2)c2ccccc21", "values": [
      {"measurement": "Potency", "setting": "[1]", "result": "inconclusive: 63.1 µM [inhibitor, partial curve, poor fit]"},
      {"measurement": "Potency", "setting": "[3]", "result": "inconclusive: 9.53 µM [inhibitor, single point]"}
    ]},
    {"smiles": "Cc1ccccc1-c1nc(CN2C(=O)CN=C(c3ccccc3)c3ccccc32)c(C)o1", "values": [
      {"measurement": "Potency", "setting": "[1]", "result": "inconclusive: 84.9 µM [inhibitor, single point]"},
      {"measurement": "Potency", "setting": "[2]", "result": "inactive"},
      {"measurement": "activity change, negative = inhibition", "setting": "[3]", "result": "inconclusive: -33.2% [inhibitor] [at 12.7 µM]"},
      {"measurement": "activation", "setting": "[4]", "result": "inconclusive: 83.6% [activator]"}
    ]},
    {"smiles": "COC1C(OC(=O)c2ccc(C)[nH]2)C(O)C(Oc2ccc3c(O)c(NC(=O)c4ccc(O)c(CC=C(C)C)c4)c(=O)oc3c2Cl)OC1(C)C", "note": "(stereo not drawn)", "values": [
      {"measurement": "Potency", "setting": "[1]", "result": "active: 30.1 µM"},
      {"measurement": "Potency", "setting": "[3]", "result": "inconclusive: 19 µM [inhibitor, full curve, poor fit]"},
      {"measurement": "Potency", "setting": "[4]", "result": "inactive"}
    ]}
  ]
}
